# Measured values: the supplement of paper PMC3334620
# Whole data set: some 33,000 sequences, median “E-score (-0.5 to 0.5)” near -0.016, cut for the highest 2% near 0.32. The list shows a part of the results.
# Target: T1, Stp1 (UniProt B3LFK1)
# T1 sequence: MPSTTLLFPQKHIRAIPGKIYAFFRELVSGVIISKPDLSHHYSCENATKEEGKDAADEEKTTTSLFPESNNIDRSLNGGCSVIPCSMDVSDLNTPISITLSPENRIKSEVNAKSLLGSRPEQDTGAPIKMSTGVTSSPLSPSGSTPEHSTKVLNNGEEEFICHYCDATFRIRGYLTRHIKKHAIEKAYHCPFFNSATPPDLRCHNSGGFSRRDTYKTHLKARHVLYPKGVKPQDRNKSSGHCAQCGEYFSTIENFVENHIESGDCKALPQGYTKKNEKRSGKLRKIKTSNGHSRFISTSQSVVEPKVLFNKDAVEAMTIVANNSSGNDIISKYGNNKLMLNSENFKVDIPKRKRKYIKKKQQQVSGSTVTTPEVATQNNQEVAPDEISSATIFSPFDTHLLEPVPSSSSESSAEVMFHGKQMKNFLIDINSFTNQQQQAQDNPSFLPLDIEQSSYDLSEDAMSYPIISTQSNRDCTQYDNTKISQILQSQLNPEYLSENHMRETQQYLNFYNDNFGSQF
# Experiment: PBM E-score (8-mer binding enrichment) (E-score (-0.5 to 0.5)); higher = stronger / more preferred TF binding; most listed sequences are background and not binding sites
# Settings: protein concentration: 200 nM; construct: GST-full length
# In short: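 Masliner-normalised scans of fluorescent anti-GST signal were the basis for scoring. That signal came from GST-tagged yeast transcription factors applied at about 100-200 nM to double-stranded universal all-10-mer Agilent arrays on fresh or once-stripped slides. Each ungapped eight-base word, pooled with its reverse complement, received an E-score from the Universal PBM Analysis Suite.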
row,Sequence,PBM E-score
1,CTTGTAGA,-0.211
2,CAGTTTCA,-0.0566
3,CGTCTATC,-0.0585
4,CGAACTAG,0.0201
5,GAACCCTC,-0.36
6,GGTTCCGA,-0.12
7,CATAGTAC,-0.103
8,GTATGACA,0.0959
9,ATGAGAGC,-0.0075
10,CTTCCGCC,0.0555
11,ATCATTGA,0.148
12,GAACTTAA,0.0354
13,TTAACGAA,0.194
14,AGGCACGC,0.209
15,GTTTGCTA,-0.0175
16,CCACTATC,-0.0893
17,GTAACATA,0.0675
18,CGCCTACC,0.0802
19,AACTCTGT,-0.12
20,AAAATCCA,0.0868
21,AATAGGCG,0.211
22,GACTACCC,-0.361

row,Sequence,PBM E-score
1,AACGGAGG,-0.055
2,AGCCTGTA,-0.108
3,GCGTAAGA,0.0658
4,AGACGTGC,0.172
5,ACGTTTCA,0.0635
6,GGGTACAA,-0.0604
7,CGGCAAAG,0.264
8,CGACCGGC,0.157
9,AGCATTGC,-0.00935
10,GCGAACTA,0.0405
11,ACCATCAC,-0.02
12,GCGTTCCC,-0.141
13,AGACTGCT,-0.305
14,AGATCTGC,0.0544
15,ACATCCTG,0.0246
16,AACTAGCA,-0.153
17,GTTGGTCA,0.0819
18,AGTAATCG,0.0689
19,GGTATCCA,0.0649
20,AAACATCT,-0.0306
21,ATCACATC,-0.101
22,AATCTGTA,-0.0269

row,Sequence,PBM E-score
1,GGACGTTA,-0.0507
2,ACTTGATC,-0.113
3,AGCATAAG,-0.029
4,GTCCTACA,0.0933
5,GTATCGAC,0.0676
6,ATTCACCG,0.0944
7,CCCAAGGA,-0.137
8,CTCGCCAC,-0.0166
9,CATTTAAC,0.121
10,AACAATAA,0.124
11,ATCACCAT,0.108
12,CAACGGGG,-0.104
13,CCGTCAAG,-0.0143
14,ACCTCTGA,-0.0406
15,GAGAGGGC,-0.0876
16,AAACGCCG,0.428
17,AGTCTAAC,-0.0391
18,ACCGAATG,0.0815
19,GCAACACA,0.128
20,AACCATGT,0.0492
21,CAAGGTGC,0.117
22,ACTAATTC,0.085

row,Sequence,PBM E-score
1,GGTCACAA,-0.0312
2,GTAGAGTA,0.0935
3,GTCCCAAC,-0.0557
4,GACTAATC,0.139
5,ATCTTGGG,-0.0872
6,AACCTGGC,-0.0591
7,CAGTGAAG,-0.101
8,CGAGATGA,0.0383
9,CCCCTGGC,-0.238
10,ACATCAGA,0.0147
11,ACGGTAAT,0.029
12,AGTGATTC,0.116
13,ATCCATAA,0.242
14,AAAGGCCC,0.0271
15,AGCATTCA,-0.041
16,GATGCATC,0.0692
17,AGTTGTCG,-0.00677
18,ACTATGCT,0.143
19,GAAATGGA,-0.11
20,CAACACTA,0.0348
